“Also recorded” adds a separate entry of the source. At least one structure is not confirmed: it was looked up by name or label, or the drawing left a doubt.
What was measured:
GLP-1R = molecular target: T1, GLP-1R (Homo sapiens, UniProt P43220); assay: In vitro GLP-1R agonistic activity test (cAMP kit); assay type: cell-based; conditions: ratio of EC50 (+) 1% HSA to (−) 1% HSA
T1 construct: host or cells: HEK293
Procedure: The cell lines were constructed by Wuxi […] (Shanghai) Co., Ltd. See details in Table 1 below. [table] [table] [table] The test compounds were diluted at a 4-fold dilution factor in 10 points, starting from an initial concentration of 30 μM. The dilution was conducted by Bravo. • 1) 100 nL of compounds were transferred to an OptiPlate-384 plate by Echo. • 2) The OptiPlate-384 plate was centrifuged at 1000 rpm for 5 s. • 1) A GLP-1R/GIPR cell cryovial was placed in warm water at 37° C. for rapid thawing. • 2) The cell suspension was transferred into a 15 mL Transfer centrifugal tube and rinsed with 10 mL of HBSS gently. • 3) The centrifugal tube was centrifuged at 1000 rpm at room temperature for 1 min. • 4) The supernatant was discarded. • 5) The bottom cells were gently dispersed, then gently rinsed with 10 mL of HBSS, the centrifugal tube was centrifuged to settle the cells, and finally the cells were resuspended in an experimental buffer. • 6) Cell density and viability were measured by Vi-cell. • 7) The GLP-1R/GIPR cells were diluted with the experimental buffer to a concentration of 2.0*10^5/mL. • 8) 100 nL of the diluted cell suspension was transferred into the OptiPlate-384 plate. • 9) Incubation was performed at room temperature for 30 min. • 1) 10 μL of 800 nM gradient diluted cAMP standard was added into the empty wells of the OptiPlate-384 plate. • 2) 10 μL of cAMP assay reagent was added. • 3) The OptiPlate-384 plate was covered with TopSeal-A film and incubated at room temperature for 60 min. • 4) The TopSeal-A film was removed, and readout was performed on En Vision.

GIPR = molecular target: T2, GIPR (Homo sapiens, UniProt P48546); assay: In vitro GIPR agonistic activity test (cAMP kit); assay type: cell-based; conditions: ratio of EC50 (+) 1% HSA to (−) 1% HSA
T2 construct: host or cells: CHO
T2 sequence (P48546 22-466): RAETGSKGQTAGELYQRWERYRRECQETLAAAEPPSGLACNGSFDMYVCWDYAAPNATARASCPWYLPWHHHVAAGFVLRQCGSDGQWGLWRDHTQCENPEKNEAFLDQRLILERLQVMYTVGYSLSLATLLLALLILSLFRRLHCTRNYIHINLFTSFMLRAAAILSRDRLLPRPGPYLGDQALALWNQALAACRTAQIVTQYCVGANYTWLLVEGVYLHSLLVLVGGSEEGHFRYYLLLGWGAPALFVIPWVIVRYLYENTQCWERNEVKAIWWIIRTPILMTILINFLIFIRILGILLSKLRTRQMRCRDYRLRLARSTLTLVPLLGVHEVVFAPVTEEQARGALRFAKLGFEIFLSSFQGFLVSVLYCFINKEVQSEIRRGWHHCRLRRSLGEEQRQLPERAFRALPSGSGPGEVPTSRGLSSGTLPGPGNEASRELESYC
Procedure: The cell lines were constructed by Wuxi […] (Shanghai) Co., Ltd. See details in Table 1 below. […] The test compounds were diluted at a 4-fold dilution factor in 10 points, starting from an initial concentration of 30 μM.

mouse model of obesity = assay: In vivo efficacy test in mouse model of obesity; conditions: high-fat diet obese mice, SC Q3d for 22 days; 10 nmol/kg (Semaglutide 30 nmol/kg)
Excerpt: To study the weight-lowering effect of the series of polypeptides of the present application in animal model of obesity, and to compare them with the marketed counterparts, Tirzepatide and Semaglutide. Mouse model of obesity was obtained by induction with high-fat diet following the reference literature (MOLECULAR METABOLISM, 18 (2018), P3-14). The specific experimental procedure was as follows: the experimental mice were fed with high-fat diet (Research Diet D12492) for 13 weeks. […] These findings indicated the successful establishment of animal models. The test animals were divided into groups. An appropriate amount of the test samples were added into 20 mM sodium citrate buffer following the experimental protocol, and the mixture was vortexed at room temperature to obtain clear solutions of varying concentrations. The obtained solutions were frozen for further use. During the experiment, animals in the model group and the dosing group were administered by means of subcutaneous injection on the outer thighs. The dosing regimen was once every 3 days […]), for a total period of 22 days. Details were as follows. [table] […] After completing the entire dosing test cycle, the test mice were weighed, and the results were shown below.

[1] = system: Db/db (Lepr leptin receptor deficient) mice; assay: In vivo efficacy test in mouse model of diabetes; conditions: for Fasting blood glucose / Change rate of glycosylated hemoglobin: db/db mice; for Change rate of glycosylated hemoglobin: “−” indicates decrease
Excerpt: To study the efficacy of the series of polypeptides of the present application in animal model of diabetes, and to compare them with the marketed counterpart Tirzepatide as reported in the literature (MOLECULAR METABOLISM, 18 (2018), P3-14). The glucose-lowering effect of Tirzepatide is much better than that of Semaglutide, and thus Semaglutide was not included in this experiment for comparison. Db/db (Lepr leptin receptor deficient) mice have typical clinical symptoms of diabetes such as extreme obesity, hyperphagia, thirst, and polyuria, and they are ideal animal model of type II diabetes. […] The test animals were divided into groups. An appropriate amount of the test samples were added into 20 mM sodium citrate buffer following the experimental protocol, and the mixture was vortexed at room temperature to obtain clear solutions of varying concentrations. The obtained solutions were frozen for further use. During the experiment, animals in the normal control group, the model group and the dosing group were administered by means of subcutaneous injection on the outer thighs. The dosing regimen was once a day (Qd), for a total period of 4 weeks. Details were as follows: [table] […] The fasting blood glucose level and the change rate of glycosylated hemoglobin level in the test mice were dynamically monitored during the experiment.

T1 sequence (P43220 24-463, species assumed): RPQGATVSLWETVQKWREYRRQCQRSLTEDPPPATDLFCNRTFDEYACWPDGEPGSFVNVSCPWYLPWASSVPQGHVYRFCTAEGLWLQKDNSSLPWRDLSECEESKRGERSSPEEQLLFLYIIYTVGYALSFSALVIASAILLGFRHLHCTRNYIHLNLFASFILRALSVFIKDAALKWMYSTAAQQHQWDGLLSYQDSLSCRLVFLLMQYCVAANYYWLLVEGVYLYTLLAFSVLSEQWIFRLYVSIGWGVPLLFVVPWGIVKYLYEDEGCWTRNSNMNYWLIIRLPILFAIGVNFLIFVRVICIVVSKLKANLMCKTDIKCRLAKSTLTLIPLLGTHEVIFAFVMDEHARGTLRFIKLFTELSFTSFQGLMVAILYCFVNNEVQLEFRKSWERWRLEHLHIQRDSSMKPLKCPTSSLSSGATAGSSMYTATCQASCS

CC[C@H](C)[C@H](NC(=O)[C@H](CC(C)C)NC(=O)[C@H](Cc1c[nH]c2ccccc12)NC(=O)[C@H](CCC(=O)O)NC(=O)[C@@H](NC(=O)[C@H](Cc1ccccc1)NC(=O)[C@H](C)NC(=O)[C@@H]1CCCCNC(=O)CN(C(=O)COCCOCCNC(=O)COCCOCCNC(=O)CC[C@H](NC(=O)CCCCCCCCCCCCCCCCCCC(=O)O)C(=O)O)CC(=O)NCCCC[C@H](NC(=O)[C@H](CCCCN)NC(=O)[C@H](CC(=O)O)NC(=O)[C@H](CC(C)C)NC(=O)C(C)(C)NC(=O)[C@@H](NC(=O)[C@H](CO)NC(=O)[C@H](Cc2ccc(O)cc2)NC(=O)[C@H](CC(=O)O)NC(=O)[C@H](CO)NC(=O)[C@@H](NC(=O)[C@H](Cc2ccccc2)NC(=O)[C@@H](NC(=O)CNC(=O)[C@H](CCC(=O)O)NC(=O)C(C)(C)NC(=O)[C@@H](N)Cc2ccc(O)cc2)[C@@H](C)O)[C@@H](C)O)[C@@H](C)CC)C(=O)N[C@@H](C)C(=O)N[C@@H](CCC(N)=O)C(=O)N1)C(C)C)C(=O)N[C@@H](C)C(=O)NCC(=O)NCC(=O)N1CCC[C@H]1C(=O)N[C@@H](CO)C(=O)N[C@@H](CO)C(=O)NCC(=O)N[C@@H](C)C(=O)N1CCC[C@H]1C(=O)N1CCC[C@H]1C(=O)N1CCC[C@H]1C(=O)N[C@@H](CO)C(N)=O [WX-005]
Agonistic activity on GLP-1R Ratio (GLP-1R): 212 | Agonistic activity on GIPR Ratio (GIPR): 121 | Weight change rate (mouse model of obesity): −17.00% | Fasting blood glucose ([1]; Day 0, 5 nmol/kg SC Qd): 26.4 ± 1.5 mmol/L | Fasting blood glucose ([1]; Day 7, 5 nmol/kg SC Qd): 11.7 ± 1.2 mmol/L | Fasting blood glucose ([1]; Day 14, 5 nmol/kg SC Qd): 13.8 ± 2.0 mmol/L | Change rate of glycosylated hemoglobin ([1]; Day 14, 5 nmol/kg SC Qd): −25.1 ± 4.4% | Fasting blood glucose ([1]; Day 21, 5 nmol/kg SC Qd): 12.8 ± 1.8 mmol/L | Change rate of glycosylated hemoglobin ([1]; Day 21, 5 nmol/kg SC Qd): −25.6 ± 4.8% | Change rate of glycosylated hemoglobin ([1]; Day 29, 5 nmol/kg SC Qd): −27.4 ± 4.6% | Glucose-lowering effect (in words) ([1]; mouse model of diabetes): good glucose-lowering effect | Lowering the fasting blood glucose level, comparison (in words) ([1]; mouse model of diabetes): slightly superior to WX009; also recorded: superior to Tirzepatide | Lowering the glycosylated hemoglobin level, comparison (in words) ([1]; mouse model of diabetes): superior to Tirzepatide | Overall glucose-lowering effect, comparison (in words) ([1]; mouse model of diabetes): significantly better glucose-lowering effect than Tirzepatide

From patent US20260055142A1, “PHARMACEUTICAL USE OF POLYPEPTIDE IN PREPARATION OF DRUGS FOR TREATING AND/OR PREVENTING DIABETES AND OBESITY AND RELATED DISEASES THEREOF” (GUANGDONG RAYNOVENT BIOTECH CO., LTD., priority 2022, published 2026)
